Hit rate of the full screen: of about 310,000 compounds, about 18,000 (5.8%) were called active. This list was built around the results that the source calls inconclusive (neither active nor inactive); the mix of calls is not that of the screen. Calls come from the whole dose curve; as a rule, active = well fitted inhibition curve with a large enough effect; inconclusive = small, poorly fitted or top-dose-only effect, or another doubt; inactive = no such curve, though single readings can be large or run the other way. Potencies of inconclusive entries are left out as doubtful fits.
Experiment: Primary qHTS for delayed death inhibitors of the malarial parasite plastid, 48 hour incubation
Settings: P. falciparum luciferase growth in erythrocytes; series mostly up to 28.7 µM
Method in brief: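 Cell-based growth assay: transgenic P. falciparum expressing firefly luciferase, cultured in red cells within RPMI 1640 containing 0.5% w/v Albumax, 24 mM bicarbonate and gentamycin. A drop in luciferase activity indicates inhibition.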
Potency is the fitted concentration of half-maximal effect; tags give direction and shape of the fitted curve.

Structure (SMILES)	Potency
CC(O)C(O)C(O)C(O)/C=N/NC(=O)c1ccccc1 (centres undefined)	inconclusive [inhibitor, single point]
Cn1c(CS(=O)Cc2c(Cl)cccc2Cl)nnc1SCc1ccc(Cl)cc1 (centres undefined)	inconclusive [inhibitor, partial curve]
CCc1ccc(NC(=O)C(C)Oc2nnc(-c3cccs3)c(-c3cccs3)n2)cc1 (centres undefined)	inconclusive [inhibitor, partial curve, poor fit]
O=C(CSc1nnc(N2CCOCC2)n1-c1cccc(F)c1)N1CCN(c2ccccn2)CC1	inconclusive [inhibitor, single point]
CCS(=O)(=O)C(=C(Nc1ccc(OC)cc1)Nc1ccc(OC)cc1)S(=O)(=O)CC	inactive
COc1ccc(NC(=O)CSCC(=O)N(C)Cc2ccc(Cl)c(Cl)c2)cc1	active: 13.1 µM
NC(=O)C1CCN(S(=O)(=O)Cc2ccccc2Cl)CC1	inactive
Nc1nnc(Cc2cccc(Br)c2)s1	inactive
COc1ccc(C(=O)N/C(=C\c2ccccc2)C(=O)NC(CC(C)C)C(=O)O)cc1 (centres undefined)	inconclusive [inhibitor, full curve, poor fit]
O=S(=O)(c1cc(Cl)ccc1Cl)N1CC2CCCN2c2ccc(C(F)(F)F)cc21 (centres undefined)	inconclusive [inhibitor, full curve, poor fit]
CN1CCC(=C2c3ccccc3CCc3sccc32)CC1	active: 15.1 µM
CCc1ccccc1NC(=O)CSc1nnc([C@@H](N)Cc2c[nH]c3ccccc23)o1	inactive
CCCCC(=O)Nc1ccc(C(=O)NNC(=S)NC(=O)c2ccco2)cc1	inconclusive [inhibitor, partial curve, poor fit]
COc1ccc(NC(=S)N2CCN(c3ccc([N+](=O)[O-])cc3)CC2)cc1OC	inconclusive [inhibitor, single point]
CCCNC(=O)C1CCN(c2cc(-c3ccccc3)nc3ncnn23)CC1	inconclusive [inhibitor, partial curve, poor fit]
CC(=O)NC(=S)Nc1ccc(NC(=O)COc2ccc(C(C)C)cc2)cc1	inconclusive [inhibitor, single point]
COc1ccc(CCNc2cc(C)nc3c(-c4ccccc4OC)cnn23)cc1OC	active: 13.1 µM
CCC(=O)N1CCc2cc(S(=O)(=O)CCC(=O)NCCC3=CCCCC3)ccc21	inconclusive [inhibitor, partial curve]
CN(CC(=O)Nc1cccc(F)c1)C(=O)c1cc(-c2ccco2)nc2ccccc12	inconclusive [inhibitor, partial curve]
